The supplement of paper PMC4166925
± gives the standard deviation of the averaged measurements. The full ranking holds about 33,000 sequences; the median of “E-score (dimensionless, -0.5 to 0.5)” is about -0.046, and the highest 2% start at about 0.36. The list shows a part of the results.

System: T1, SpTbr T-box DNA-binding domain (GST fusion)
T1 sequence: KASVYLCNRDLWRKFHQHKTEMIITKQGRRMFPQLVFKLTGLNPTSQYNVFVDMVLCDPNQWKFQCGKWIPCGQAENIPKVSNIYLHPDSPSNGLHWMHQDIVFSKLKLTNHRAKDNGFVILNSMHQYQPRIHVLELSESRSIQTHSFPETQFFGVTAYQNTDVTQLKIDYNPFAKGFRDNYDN
Assay: PBM E-score of 8-mer (E-score (dimensionless, -0.5 to 0.5)); Tbr is Tbrain of the sea star Patiria miniata (Pm) or the sea urchin Strongylocentrotus purpuratus (Sp); higher = stronger binding preference; most listed sequences are background and not binding sites
Conditions: the construct has about 5 more residues each side
How it was run: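 Universal Agilent oligonucleotide arrays, made double-stranded by primer extension, were incubated with 200 nM GST-fused Tbr T-box DNA-binding domain in PBS (pH 7.5). The protein was expressed in BL21 E. coli at 20 °C and purified by glutathione affinity chromatography. After scanning and quantification, the Universal PBM Analysis Suite assigned an enrichment E-score to each ungapped 8-mer, averaged over duplicate arrays.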

Row | Sequence | PBM E-score of 8-mer
1 | TACGGCGA | -0.171 ± 0.11
2 | AGAGCATC | -0.154 ± 0.1
3 | GGCGGCGA | 0.0793 ± 0.018
4 | CCGAGTAC | -0.145 ± 0.053
5 | CCTATAAC | -0.0822 ± 0.018
6 | CACCCGAG | 0.069 ± 0.066
7 | ACTTGGCT | -0.211 ± 0.036
8 | AGCTATTC | -0.162 ± 0.022
9 | GGCGCTCA | 0.0148 ± 0.02
10 | CTAACAGA | 0.171 ± 0.054
11 | GATCTCCC | -0.105 ± 0.023
12 | ACAACAAT | 0.167 ± 0.0095
13 | ATGCAGTC | -0.0765 ± 0.095
14 | AGCTCCTG | -0.149 ± 0.038
15 | AATAAAGG | -0.242 ± 0.049
16 | TGAGTTAA | -0.15 ± 0.002
17 | CCCAAGAG | -0.169 ± 0.035
18 | AGGGCACC | -0.223 ± 0.011
19 | AGAAGCCG | -0.245 ± 0.083
20 | AGCGACTC | 0.0837 ± 0.035
21 | GTGGTGTA | 0.186 ± 0.013
22 | GCTAGTCA | 0.00479 ± 0.017
23 | CGCAGAGA | -0.217 ± 0.082
24 | GGTGAAAA | 0.126 ± 0.095
25 | AATAAATA | -0.133 ± 0.013

Row | Sequence | PBM E-score of 8-mer
26 | AGTCCTGC | -0.112 ± 0.076
27 | CTGAGCAC | 0.0441 ± 0.071
28 | CCCCCTGC | -0.29 ± 0.046
29 | AACTATCT | 0.00728 ± 0.06
30 | AAGGGGTC | -0.131 ± 0.023
31 | GCAGACGC | -0.148 ± 0.0026
32 | GAGGTACA | -0.248 ± 0.0098
33 | CTCGTCGA | 0.0037 ± 0.0045
34 | GCCTCCCC | -0.116 ± 0.039
35 | AACTGAAT | -0.218 ± 0.04
36 | CTATTCGC | 0.275 ± 0.018
37 | GTAATCAA | 0.0372 ± 0.052
38 | CGACATTC | -0.0199 ± 0.12
39 | AGAGTACT | -0.111 ± 0.0057
40 | CAACTTGG | 0.152 ± 0.022
41 | AGGGTGAG | 0.216 ± 0.048
42 | AGGGTGAC | 0.239 ± 0.047
43 | GACCTTAA | -0.188 ± 0.0048
44 | CTATATCC | -0.0238 ± 0.0011
45 | ATATCCTC | -0.148 ± 0.0028
46 | ATTCATAA | -0.137 ± 0.0041
47 | CCGCACAG | 0.152 ± 0.013
48 | CGGCAAGC | -0.15 ± 0.023
49 | CCCTGGCG | 0.0703 ± 0.082
50 | CTCGTGCC | -0.0876 ± 0.037

Row | Sequence | PBM E-score of 8-mer
51 | AGGCAATG | -0.0948 ± 0.048
52 | CCATGACA | 0.144 ± 0.056
53 | CTGCTGGA | -0.26 ± 0.004
54 | ACCTATTA | 0.0258 ± 0.001
55 | ATAAACTC | -0.0618 ± 0.002
56 | CAGTATCG | 0.0559 ± 0.018
57 | ACAAGCCA | 0.103 ± 0.0058
58 | GACGGGAA | 0.0649 ± 0.056
59 | GAAGTCCC | -0.099 ± 0.05
60 | CATTTCTA | 0.0766 ± 0.072
61 | AGAGTTGA | 0.105 ± 0.043
62 | AGATTTCG | 0.0333 ± 0.039
63 | TGTACCAA | -0.0585 ± 0.11
64 | ACCGGCCG | -0.189 ± 0.029
65 | GAACCCAC | -0.249 ± 0.044
66 | ATGATACG | -0.0359 ± 0.0093
67 | CTCTGGCC | -0.318 ± 0.042
68 | GTGACCAA | 0.129 ± 0.024
69 | ATTGGCTA | -0.118 ± 0.0085
70 | GTAACGTA | -0.217 ± 0.024
71 | CTTTATCC | -0.201 ± 0.0046
72 | CAAGCAAC | -0.0167 ± 0.075
73 | ACCGAAGA | -0.00903 ± 0.0076
74 | CTCGGCAA | -0.0107 ± 0.054
75 | AATTCTAG | -0.227 ± 0.029

Row | Sequence | PBM E-score of 8-mer
76 | AATCAATT | 0.0832 ± 0.12
77 | AGGATACC | -0.292 ± 0.028
78 | AGGCACTA | -0.127 ± 0.064
79 | AGCTAGCG | 0.0935 ± 0.042
80 | ATACGTCC | -0.205 ± 0.019
81 | AGTTTAGA | -0.123 ± 0.0093
82 | AAACACGT | 0.258 ± 0.063
83 | AGGTGGAA | 0.0503 ± 0.028
84 | CCTATAAG | 0.118 ± 0.016
85 | ACAAGTCG | 0.218 ± 0.029
86 | ACAGATCC | -0.0823 ± 0.011
87 | AGCGACCG | -0.0425 ± 0.01
88 | AACGGCGG | 0.0941 ± 0.035
89 | CAACAGGG | -0.179 ± 0.012
90 | CTTGTTCA | 0.0567 ± 0.042
91 | ATAACGAA | -0.0167 ± 0.027
92 | CCGTACGG | -0.279 ± 0.043
93 | ACAGTGGG | 0.0359 ± 0.0088
94 | AAAGTATA | -0.0349 ± 0.041
95 | ACCTCCGC | 0.0711 ± 0.017
96 | CAGACCAA | -0.0563 ± 0.049
97 | CAAGGTTA | -0.114 ± 0.062
98 | AATAATTG | -0.0315 ± 0.04
99 | CAAGCACA | 0.125 ± 0.058
100 | GTCGTGAA | 0.3 ± 0.034

Row | Sequence | PBM E-score of 8-mer
101 | TGCCAGCA | 0.0813 ± 0.012
102 | GCGGTACC | 0.00526 ± 0.018
103 | GAATTAGC | 0.0795 ± 0.01
104 | GAGATCAC | 0.236 ± 0.038
105 | AAAGTAAT | -0.288 ± 0.016
106 | AGAAGTAC | -0.21 ± 0.009
107 | AACACACA | 0.276 ± 0.0056
108 | TGCGCAAA | 0.173 ± 0.027
109 | TCACAGCA | 0.224 ± 0.044
110 | CCGATAGA | -0.229 ± 0.053
111 | CCTTTAGA | -0.292 ± 0.04
112 | CAACAACG | 0.0673 ± 0.059
113 | CAGTAAAA | -0.2535 ± 0.0015
114 | ATCGTGAA | 0.2403 ± 0.0014
115 | ACGGTATC | -0.136 ± 0.057
116 | AACGGCCC | -0.174 ± 0.044
117 | CCAGAAAA | -0.0169 ± 0.024
118 | CTAATGAC | 0.074 ± 0.033
119 | CCGTGGTA | -0.101 ± 0.033
120 | CATCATAA | -0.0269 ± 0.00038
121 | GCAATAGC | -0.00993 ± 0.042
122 | CGCAATGA | -0.126 ± 0.016
123 | ATCAGTAA | -0.169 ± 0.066
124 | CTTCTTCA | 0.0983 ± 0.013
125 | GGTCGACC | -0.281 ± 0.009

Row | Sequence | PBM E-score of 8-mer
126 | CATGCCCG | 0.00914 ± 0.03
127 | GCAAAATA | -0.154 ± 0.0035
128 | TAAGAATA | -0.0453 ± 0.085
129 | ATGCGTCG | 0.0377 ± 0.039
130 | AGAATAAA | -0.112 ± 0.013
131 | ACAGAGTG | 0.0268 ± 0.0033
132 | AATGATAT | -0.163 ± 0.029
133 | GTGCCTAA | 0.122 ± 0.027
134 | GACGGCTA | -0.166 ± 0.013
135 | AGGGACAT | -0.254 ± 0.0042
136 | CGTTATGC | -0.147 ± 0.093
137 | CTTACTGA | -0.18623 ± 0.00018
138 | ATCTACAC | 0.148 ± 0.017
139 | CCCGATAG | -0.103 ± 0.00011
140 | ACTTTGTA | -0.104 ± 0.0071
141 | CGGCCTAC | -0.102 ± 0.011
142 | CAATTCCA | -0.0184 ± 0.047
143 | CCCCTACC | -0.113 ± 0.031
144 | ACAAAAAG | 0.0471 ± 0.034
145 | GAAGTAGA | -0.117 ± 0.031
146 | ACAAGCAT | 0.0613 ± 0.017
147 | ATGCTGAC | -0.164 ± 0.06
148 | CGATGCTC | 0.0216 ± 0.0096
149 | TCACTGCA | 0.223 ± 0.032
150 | TAAACGGA | -0.179 ± 0.033

Row | Sequence | PBM E-score of 8-mer
151 | AGCCACAG | -0.0197 ± 0.024
152 | CGATACGA | -0.0502 ± 0.055
153 | ACTTTTAT | -0.0835 ± 0.068
154 | AATAAGAT | -0.225 ± 0.022
155 | TAGCGTGA | 0.342 ± 0.012
156 | TGGGTACA | -0.255 ± 0.079
157 | ATCATTTG | -0.078 ± 0.0047
158 | GGGTAATA | -0.228 ± 0.046
159 | CATTGAAG | -0.0634 ± 0.056
160 | TTAGCGAA | 0.11 ± 0.033
161 | CGGCTCGC | 0.129 ± 0.011
162 | CAGCAAAC | -0.00944 ± 0.054
163 | CCCTACTA | -0.16 ± 0.12
164 | GATATGTA | -0.158 ± 0.032
165 | CCGACCAC | 0.0135 ± 0.026
166 | CTGAATTA | -0.0446 ± 0.041
167 | CTGCTAGC | 0.165 ± 0.045
168 | AAATTACT | 0.0627 ± 0.11
169 | AGCGCAAT | 0.165 ± 0.032
170 | ACTAGGAC | -0.157 ± 0.037
171 | AACTCTGA | -0.0644 ± 8.5e-05
172 | AGATCTTG | 0.0314 ± 0.002
